Where a name gives a salt, the structure may show the parent alone. No end group written: not given here.
Tests used:
[1] = test system: HEK293 cells; details: ligand 10 μM; for DMR agonist activity classification, HEK: parental HEK293
[2] = test system: SH-SY5Y cells; assay: iPOT DMR profiling of SH-SY5Y cells pretreated with probe molecules; details: 1 hr, ligand 10 μM; for effect of the kinase inhibitors on ligand DMR: U0126, SB202190, SP600125 or LY294002, 10 μM; for effect of forskolin pretreatment on ligand DMR: 10 μM forskolin

| Compound | DMR in parental HEK293 cells, in words [1] | DMR agonist activity classification, HEK [1] | effect of the kinase inhibitors on ligand DMR [2] | effect of forskolin pretreatment on ligand DMR [2] |
| --- | --- | --- | --- | --- |
| O=C1/C(=C/c2ccccc2)C[C@@]2(O)[C@H]3Cc4ccc(O)c5c4[C@@]2(CCN3CC2CC2)[C@H]1O5 [BNTX] | noticeable DMR | off-target | – | – |
| COC(=O)N1CCN(C(=O)Cc2ccc(Cl)c(Cl)c2)C(CN2CCCC2)C1 (stereo not shown) [GR 89696] | – | – | mostly suppressed | – |
| CN(C(=O)Cc1ccc(Cl)c(Cl)c1)[C@H](CN1CCCC1)c1ccccc1 [ICI 199,441] | noticeable DMR | off-target | – | – |
| C=CCN1CC[C@]23c4c5ccc(O)c4O[C@H]2C(=O)CC[C@@]3(O)[C@H]1C5 [Naloxone HCl] | – | inactive | – | – |
| COC(=O)/C=C/C(=O)N[C@@H]1CC[C@@]2(O)[C@H]3Cc4ccc(O)c5c4[C@@]2(CCN3CC2CC2)[C@H]1O5 [β-Funaltrexamine] | noticeable DMR | off-target | – | – |
| DSLET | – | – | – | suppressed |
| Dynorphin A (1–8) (YGGFLRRI; Dynorphin A(1-8); UniProt P01213 207-214, looked up, fragment) | – | – | mostly suppressed | suppressed |
| Nociceptin (1–13) (FGGFTGARKSARK-NH2; UniProt Q13519 130-142, looked up, fragment) | noticeable DMR | off-target | – | – |

Reference: paper PMC3602246 (BMC Pharmacology & Toxicology, 2013)
